# Reference: the supplement of paper PMC3724861
# Some of the results follow.
# Test system: T1, Caupolican (Caup) homeodomain DNA-binding domain
# T1 sequence: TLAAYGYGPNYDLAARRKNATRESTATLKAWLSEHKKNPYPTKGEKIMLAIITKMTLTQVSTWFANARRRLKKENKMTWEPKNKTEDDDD
# Experiment: PBM E-score (8-mer, recovered from the published 9-mer minima) (E-score (dimensionless, -0.5 to 0.5)); Drosophila protein; higher = stronger relative binding preference, active = 0.31 or more
# Summary of the method: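 Caup's homeodomain DNA-binding domain (residues 214-303) was produced by in vitro transcription and translation and applied at 100 nM to custom-designed protein binding microarrays. Each value is an enrichment score giving relative binding preference for a short DNA word; higher means stronger. Published 9-mer scores were the minimum of their two constituent 8-mer scores, and the 8-mer values were recovered from those minima. A cutoff of 0.31 marks candidate binding sequences.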
row,Sequence,PBM E-score
1,TGACGCCA,inactive: -0.11
2,AAATTAAT,inactive: 0.145
3,AGAGTTAG,inactive: -0.0678
4,CTGTATAA,inactive: 0.186
5,AGCTTGCG,inactive: -0.158
6,AATGTAGA,inactive: 0.139
7,AGCTCTGC,inactive: -0.216
8,TGTACAAA,active: 0.384
9,CAATTGGC,inactive: -0.0129
10,ACCGAACA,≥ 0.244
11,CCGGAGCA,inactive: -0.122
12,GCTTGTAC,active: 0.38
13,ATTCATAG,inactive: 0.163
14,GTATCCAC,inactive: -0.0186
15,TTAGCAAA,inactive: 0.0812
16,AAAGTGCG,inactive: -0.13
17,TCCATTAA,inactive: 0.0869
18,GCGCCAGA,inactive: -0.223
19,TACCGCCA,≥ -0.0192
20,CTCAAAAG,inactive: 0.0163
21,CGTATGCC,inactive: -0.0747
22,GACATAGA,inactive: 0.187
23,AATATGAA,inactive: 0.159

row,Sequence,PBM E-score
1,CTGCCTGA,inactive: -0.0293
2,ACTACCGA,inactive: -0.0388
3,ATTCCGCG,inactive: -0.115
4,AACCTAAT,inactive: -0.0419
5,AAGCCAGA,inactive: -0.0853
6,GTATCGGA,inactive: 0.0601
7,ACACGAAT,inactive: 0.288
8,CAGCTCGG,inactive: -0.182
9,CTAGCAAC,inactive: 0.101
10,ACGTGACG,inactive: 0.0293
11,TCCACGCA,inactive: -0.0934
12,GTAGAATA,inactive: 0.232
13,GGACGCAC,inactive: -0.0705
14,TAGATGGA,inactive: 0.0256
15,GAGTCCGC,inactive: -0.197
16,ATCACAAT,inactive: 0.174
17,CACGGAAA,inactive: 0.119
18,CCCACTGA,inactive: -0.0823
19,CCCAGTCC,inactive: -0.0854
20,CCACAGCC,inactive: -0.141
21,ACGGACAT,inactive: 0.265
22,AGCAGACA,inactive: 0.0631
23,CACAAAGG,inactive: -0.0704

row,Sequence,PBM E-score
1,ATAGTCAA,inactive: 0.0921
2,AGGGTGCC,inactive: -0.169
3,GGTCGCGA,inactive: -0.0519
4,GGGTGTAA,inactive: 0.146
5,ACCAAGGG,inactive: -0.03
6,AATTCAAA,inactive: 0.141
7,AGGACTGG,inactive: -0.0346
8,CCTCCTAG,inactive: -0.0581
9,CTCCAGAG,inactive: -0.179
10,GTGACATA,active: 0.312
11,ACCTAATA,inactive: 0.117
12,GCAAGTCA,inactive: 0.0708
13,ACTGACAA,inactive: 0.283
14,ACAACTAA,inactive: 0.248
15,ATCCTAAA,inactive: 0.0253
16,GGACATGA,inactive: 0.304
17,CGCTAACC,inactive: -0.15
18,TAGGATAA,inactive: 0.00838
19,ATCGTCAC,inactive: 0.0878
20,GACCTCCC,inactive: -0.237
21,ACATTTTC,inactive: 0.161
22,CCAGAAGG,inactive: -0.0936
23,GTGCTTAA,inactive: 0.0207

row,Sequence,PBM E-score
1,TCATCGGA,inactive: 0.0107
2,TCGGGGCA,≥ -0.114
3,GCATTAAC,inactive: 0.052
4,ACGCCTCA,≥ -0.0822
5,ATCGGCGC,inactive: -0.0528
6,GGTATAAC,inactive: 0.0976
7,ACACGATG,active: 0.347
8,AGGAAGAC,inactive: -0.0315
9,AGCTCCAC,inactive: -0.0389
10,AAATAAGG,inactive: 0.0257
11,CACCAGAG,inactive: -0.069
12,TAGCGACA,inactive: 0.202
13,AAGACGCA,inactive: -0.0559
14,GCGCCCGA,inactive: -0.211
15,AGTTTTAG,inactive: -0.00033
16,GTTACTTA,inactive: 0.173
17,CTCGCAGC,inactive: -0.16
18,GAAGTTGC,inactive: -0.0485
19,ACCGATGG,inactive: -0.0399
20,AGCTATAC,inactive: 0.0668
21,CGACATAA,inactive: 0.303
22,CGTCCCAG,inactive: -0.163
23,ACGTGTTG,active: 0.347

row,Sequence,PBM E-score
1,CAGTGGCG,inactive: -0.206
2,AGATGCTC,inactive: -0.0113
3,GTAGGCCA,inactive: -0.113
4,AGCTGAAA,inactive: 0.00185
5,AGGTACTC,inactive: 0.085
6,CGCATGCC,inactive: -0.0847
7,CACGATCA,inactive: 0.145
8,ACCTGCGG,inactive: -0.19
9,AATGTCCT,inactive: 0.108
10,ATGGCTCA,inactive: -0.0747
11,AGACCTCA,inactive: -0.0286
12,AACCTGAC,inactive: 0.121
13,AGGACTCA,≥ -0.00857
14,CCAACGCA,inactive: -0.0857
15,TAAGCAGA,inactive: -0.0352
16,GACGACTC,inactive: -0.0849
17,ACCTTAGT,inactive: 0.0366
18,CCCAACGA,inactive: -0.0205
19,GAGGGATC,inactive: -0.148
20,AGTCGGCG,inactive: -0.116
21,GAAGTTTA,inactive: 0.0574
